# Some of the results follow. Most values come without repeats; read them as rough.
# System: WM3619
# Experiment: cell count relative to DMSO control; melanoma cells; higher = more viable cells
# Settings: library dose: standard library concentration; 72 h
# 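Also: cells treated in 1,536-well plates, then fixed and DAPI-stained, with nuclei counted from automated high-throughput microscope images.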
row,Structure (SMILES),cell count [%]
1,"Cn1cnc2c(F)c(Nc3ccc(Br)cc3Cl)c(C(=O)NOCCO)cc21 [selumetinib] + Cc1cc(N2CCOCC2)cc2[nH]c(-c3c(NC[C@@H](O)c4cccc(Cl)c4)cc[nH]c3=O)nc12 [BMS536924] (first compound 0.075 µM, partner dose 1 µM)",63.7
2,"C[C@]1(O)C[C@@H](c2nc(-c3ccc4ccc(-c5ccccc5)nc4c3)c3c(N)nccn32)C1 + O=C(O)c1ccc(-c2c[nH]c3ncc(-c4ccccc4)cc23)cc1C1CCCC1 [GSK650394] (first compound 2 µM, partner dose 0.8 µM)",89.4
3,"C[C@]1(O)C[C@@H](c2nc(-c3ccc4ccc(-c5ccccc5)nc4c3)c3c(N)nccn32)C1 + COc1cc2c(Oc3ccc4[nH]c(C)cc4c3F)ncnc2cc1OCCCN1CCCC1 [cediranib] (first compound 2 µM, partner dose 2 µM)",114
4,"COc1cc([C@@H]2c3cc4c(cc3[C@@H](O[C@@H]3O[C@@H]5CO[C@@H](C)O[C@H]5[C@H](O)[C@H]3O)[C@H]3COC(=O)[C@H]23)OCO4)cc(OC)c1O [etoposide] + CN(C)S(=O)(=O)c1ccc2c(c1)/C(=C/c1cc3c([nH]1)CCCC3)C(=O)N2 [SU6656] (first compound 0.1 µM, partner dose 2 µM)",68.3
5,"CCN(CC)CCNC(=O)c1c(C)[nH]c(/C=C2\C(=O)Nc3ccc(F)cc32)c1C [sunitinib] + NCC(=O)Nc1ccc(-n2nc(C(F)(F)F)cc2-c2ccc3c(ccc4ccccc43)c2)cc1 [OSU03012] (first compound 2 µM, partner dose 5 µM)",6.32
6,"Cn1cnc2c(F)c(Nc3ccc(Br)cc3Cl)c(C(=O)NOCCO)cc21 [selumetinib] + CC(C)(C)c1cnc(CSc2cnc(NC(=O)C3CCNCC3)s2)o1 [SNS-032] (first compound 0.075 µM, partner dose 0.05 µM)",44.7
7,"C[C@]1(O)C[C@@H](c2nc(-c3ccc4ccc(-c5ccccc5)nc4c3)c3c(N)nccn32)C1 + CC1(C)NC(=O)N(c2ccc([N+](=O)[O-])c(C(F)(F)F)c2)C1=O [nilutamide] (first compound 2 µM, partner dose 5 µM)",126
8,"Cn1cnc2c(F)c(Nc3ccc(Br)cc3Cl)c(C(=O)NOCCO)cc21 [selumetinib] + CO[C@@H]1[C@H](N(C)C(=O)c2ccccc2)C[C@H]2O[C@]1(C)n1c3ccccc3c3c4c(c5c6ccccc6n2c5c31)C(=O)NC4 [Midostaurin] (first compound 0.075 µM, partner dose 0.4 µM)",76.3
9,"CCN(CC)CCNC(=O)c1c(C)[nH]c(/C=C2\C(=O)Nc3ccc(F)cc32)c1C [sunitinib] + CC1(C)NC(=O)N(c2ccc([N+](=O)[O-])c(C(F)(F)F)c2)C1=O [nilutamide] (first compound 2 µM, partner dose 5 µM)",113
10,"COc1cc([C@@H]2c3cc4c(cc3[C@@H](O[C@@H]3O[C@@H]5CO[C@@H](C)O[C@H]5[C@H](O)[C@H]3O)[C@H]3COC(=O)[C@H]23)OCO4)cc(OC)c1O [etoposide] + CC1(C)NC(=O)N(c2ccc([N+](=O)[O-])c(C(F)(F)F)c2)C1=O [nilutamide] (first compound 0.1 µM, partner dose 5 µM)",59.1
11,"CCN(CC)CCNC(=O)c1c(C)[nH]c(/C=C2\C(=O)Nc3ccc(F)cc32)c1C [sunitinib] + O=C(O)c1ccc(-c2c[nH]c3ncc(-c4ccccc4)cc23)cc1C1CCCC1 [GSK650394] (first compound 2 µM, partner dose 0.8 µM)",107
12,"CCN(CC)CCNC(=O)c1c(C)[nH]c(/C=C2\C(=O)Nc3ccc(F)cc32)c1C [sunitinib] + Cc1ccc(NC(=O)c2cccc(N(C)C)c2)cc1NC(=O)c1ccc(O)cc1 [ZM336372] (first compound 2 µM, partner dose 10 µM)",54.1
13,"Cn1cnc2c(F)c(Nc3ccc(Br)cc3Cl)c(C(=O)NOCCO)cc21 [selumetinib] + COc1cc(N2CCC(N3CCN(C)CC3)CC2)ccc1Nc1ncc(Cl)c(Nc2ccccc2S(=O)(=O)C(C)C)n1 [NVP-TAE684] (first compound 0.075 µM, partner dose 0.4 µM)",72.8
